From article PMC6919601, “Identification of Plasmodium dipeptidyl aminopeptidase allosteric inhibitors by high throughput screening” (PLoS ONE, 2019)
Among all 110,000 compounds or so, about 230 (0.21%) showed an effect of 50% or more. The list shows a part of the results.

Molecular target: DPAP1 (Plasmodium falciparum, UniProt Q8IIJ9)
Test: primary screen, percent inhibition; read by cleavage of a fluorogenic dipeptide substrate; higher = more effect of the substance
Design: species or system P. falciparum D10 trophozoite lysates; single well
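Note: 30 min substrate incubation versus DMSO and 10 µM JCP410 controls.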

Chain of DPAP1 (Q8IIJ9 whole entry, looked up): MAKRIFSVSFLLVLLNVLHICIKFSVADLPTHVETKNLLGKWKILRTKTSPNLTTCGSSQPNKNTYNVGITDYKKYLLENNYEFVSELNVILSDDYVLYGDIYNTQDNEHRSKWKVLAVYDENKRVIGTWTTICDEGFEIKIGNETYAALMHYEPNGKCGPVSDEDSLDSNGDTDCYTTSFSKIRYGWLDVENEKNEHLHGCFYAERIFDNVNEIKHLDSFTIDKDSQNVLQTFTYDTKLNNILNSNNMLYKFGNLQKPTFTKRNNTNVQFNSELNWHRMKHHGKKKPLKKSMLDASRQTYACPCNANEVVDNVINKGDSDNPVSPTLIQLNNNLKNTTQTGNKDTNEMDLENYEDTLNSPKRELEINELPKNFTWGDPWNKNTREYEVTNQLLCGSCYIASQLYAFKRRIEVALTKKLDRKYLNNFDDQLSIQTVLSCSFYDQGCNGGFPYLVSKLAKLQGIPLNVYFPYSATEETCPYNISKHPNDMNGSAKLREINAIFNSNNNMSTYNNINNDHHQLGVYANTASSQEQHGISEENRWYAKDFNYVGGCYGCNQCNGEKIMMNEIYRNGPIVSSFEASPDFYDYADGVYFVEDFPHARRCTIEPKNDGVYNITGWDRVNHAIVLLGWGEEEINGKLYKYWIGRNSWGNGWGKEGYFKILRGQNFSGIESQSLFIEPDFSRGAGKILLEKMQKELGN

| Structure (SMILES) | % Inhibition @ 10 uM [%] |
| --- | --- |
| COC(=O)C1=C(C)NC(=O)CC1c1ccccc1Cl (stereo not shown) | 0.177 |
| O=C(Nc1nc2ccc(Cl)cc2s1)c1cccc(F)c1 | 0.316 |
| CCCc1nn(-c2ccc(F)cc2)c(O)c1/C=N/CCCN(CC)CC | -4.91 |
| CC1CC(C)CN(C(=O)c2ccc(CS(=O)(=O)Cc3ccc(F)cc3)o2)C1 (stereo not shown) | 0.718 |
| O=C(NCc1ccc2c(c1)OCO2)c1ccc(CNS(=O)(=O)c2ccccc2)cc1 | 1.9 |
| COc1cccc(C2=N/C(=C\c3ccccc3C(F)(F)F)C(=O)O2)c1 | -2.99 |
| CCOC(=O)c1c(NC(=S)Nc2ccccc2)sc2c1CCN(C)C2 | 35.4 |
| Clc1ccc(-c2noc3ncnc(N4CCC(c5ccccc5)C4)c23)cc1 (stereo not shown) | -2.19 |
| C=Cn1c2ccccc2c2nc3ccccc3nc21 | -0.0235 |
| CC1CCN(C(=O)C(c2ccccc2)N2Cc3ccccc3C2=O)CC1 (stereo not shown) | 0.868 |
| O=C(CCc1nnc2n(Cc3ccc(F)cc3)c(=O)c3ccccc3n12)NCCN1CCCC1 | 4.16 |
| CC(=O)Nc1ccc(C(=O)/C=C\c2ccccc2)cc1 | -6.99 |
| CCOc1ccc(CCNC(=O)c2ccc(CS(=O)(=O)c3ccc(Cl)cc3)o2)cc1OCC | 0.718 |
| CC(C)NC(=O)c1ccccc1NS(=O)(=O)c1ccc(Br)s1 | 6.7 |
| CCCN1CCN(C(=O)c2nc(-c3ccc(Cl)cc3)n3c2CCCCC3)CC1 | 7.2 |
| CCc1nc2ccccc2c(NC(=O)CN2CCCC2)c1C | -4.96 |
| O=C(Cn1c(=O)c2cccn2c2cccnc21)NCc1ccc(F)cc1 | -7.56 |
| CCCS(=O)(=O)N1CCCC(C(=O)NCCCN2CCCC2=O)C1 (stereo not shown) | -0.0542 |
| CC(C)c1ccc2c(c1)C(=O)Cc1cc(N)ccc1S2 | -8.26 |
| Cc1c(CN(C)C(=O)CCn2nc(C(F)(F)F)c(Br)c2C)cnn1C | -0.545 |
| COc1ccccc1OCc1nc(-c2ccc(Cl)cc2Cl)no1 | -4.51 |
| CCn1cc(Cl)c(C(=O)Nc2ccn(C34CC5CC(CC(C5)C3)C4)n2)n1 | -1.98 |
| COc1ccc(C(=O)N2CCC3(CC2)N=C(c2ccccc2)C(=O)N3)c(OC)c1 | 1.25 |
| CCCCCNC(=O)/C(NC(=O)c1ccccc1)=C(/Sc1ccc(Cl)cc1)c1ccccc1 | -2.62 |
| Cc1ccc(CNC(=O)Cn2c(=O)c3sccc3n(Cc3ccc(C)cc3)c2=O)cc1 | -3.12 |
| CCN1CCN(Cc2cc(OC)ccc2OC)CC1 | 5.42 |

| Structure (SMILES) | % Inhibition @ 10 uM [%] |
| --- | --- |
| CCCCCCc1nnc(NC(=O)OCC)s1 | 3.74 |
| O=C(CN(C1CCCCC1)S(=O)(=O)c1ccc(Cl)cc1)NCC1CCCO1 (stereo not shown) | -5.4 |
| COc1ccc(O)c(C2Oc3ccccc3C3CC(c4cccs4)=NN32)c1 (stereo not shown) | 23.3 |
| Cc1ccc2nc(-c3ccccc3O)c(C)c(C(=O)O)c2c1 | -0.116 |
| CCOC(=O)N1CCN(c2c(-c3cc(C)c(C)cc3C)c(=O)c2=O)CC1 | -3.05 |
| COc1cc2c(cc1OC)C(C(CCC(C)C)C(N)=O)=NC(C)(C)C2 (stereo not shown) | -3.71 |
| COc1ccc(COCC(O)CN2CCOCC2)cc1OC (stereo not shown) | -2.15 |
| CSc1nc2c(sc3ccccc32)c(=O)n1Cc1ccc2c(c1)OCO2 | -1.17 |
| CCN(CCN(C)C)Cc1cccc(Cl)c1 | -2.56 |
| CC(C)OCCCNC(=O)c1cc2c(-c3ccccc3F)nn(C)c2s1 | 0.317 |
| NS(=O)(=O)c1ccc(NC(=S)NC(=O)c2ccco2)cc1 | -6.82 |
| N#Cc1c(N)nc2c(c1-c1ccc(Br)cc1)CCCCCC2 | 2.47 |
| O=c1ccc2ccc(OC3OC(CO)C(O)C(O)C3O)c(O)c2o1 (stereo not shown) | -2.15 |
| Cc1cc(-c2ccc(C)c(S(=O)(=O)N(C)CC3COc4ccccc4O3)c2)on1 (stereo not shown) | -5.12 |
| COc1ccc(NC(=O)c2cccs2)c([N+](=O)[O-])c1 | -3.04 |
| O=C(Cc1ccccc1)Nc1nc(=O)c2ccccc2s1 | -4.35 |
| Cc1ccc(O)c(C(=O)c2cnn(-c3ccccc3)c2)c1 | -3.09 |
| c1cncc(CN2CCc3ccccc3C2)c1 | 1.48 |
| CN(Cc1ccccc1)S(=O)(=O)c1ccc(-c2cc(C(F)(F)F)no2)s1 | 1.56 |
| O=[N+]([O-])Cc1nnc(O)c2ccccc12 | 2.55 |
| O=C1NN=C2CC3CC(CC4=NNC(=O)C43)C12 (stereo not shown) | -9.37 |
| CC(C)C[C@H](NC(=O)c1ccc(-c2ccc(N)cc2)cc1)C(=O)NCC#N | 4.33 |
| CN(C)c1ccc(C(O)c2cccs2)cc1 (stereo not shown) | 2.68 |
| CC1CCN(S(=O)(=O)c2ccc(NC(=O)COc3ccccc3Cl)cc2)CC1 | -5.58 |
| O=c1c2ccccc2nc(CN2CCOCC2)n1-c1ccc([N+](=O)[O-])cc1 | 7.66 |
| CC1(C)CC(=O)c2cnc(NC(=O)C3CCCC3)nc2C1 | -6.44 |

| Structure (SMILES) | % Inhibition @ 10 uM [%] |
| --- | --- |
| CCOC(=O)c1cnc(SCC(=O)c2ccc(Br)cc2)nc1N | 1.64 |
| C=CC/N=c1\scc(-c2ccccc2)n1CC=C | -8.06 |
| Cc1nn(-c2ccccc2)c2sc(C(=O)NCCCO)cc12 | -0.28 |
| COc1ccc(Cl)cc1N(CC(=O)Nc1ccc(C)cc1C)S(C)(=O)=O | 0.324 |
| CC(=O)CC1(O)C(=O)N(CN2CCCCC2)c2ccccc21 (stereo not shown) | 3.58 |
| Nc1c(C(=O)NCCc2ccccc2)nnn1Cc1ccccc1 | 1.05 |
| COc1cc(OC)cc(C(=O)Nc2cccc(Cl)c2C)c1 | -4.87 |
| COCCN1C2=C(C(=O)CC(C)(C)C2)C(c2cccc(O)c2)C2=C1CC(C)(C)CC2=O | -1.6 |
| Cc1c(C(=O)NC(C)c2ccc(Cl)cc2)cnn1-c1ccccc1 (stereo not shown) | 3.48 |
| CC1CCC(C(C)C)C(OCC(O)CNC(C)(C)C)C1 (stereo not shown) | 1.63 |
| CCSc1nc2c(c(=O)n1-c1ccc(OC)cc1)C1(CCCCC1)Cc1ccccc1-2 | -3.77 |
| COc1ccc(OC)c(-c2[nH]c3c(=O)n(C)c(=O)n(C)c3c2O)c1 | 1.25 |
| Cc1ccc(S(=O)(=O)c2nc(S(C)(=O)=O)sc2NCCCOC(C)C)cc1 | -0.522 |
| COc1ccc(CCNC(=O)c2ccncc2)cc1OC | -1.63 |
| CC(C)=CCCC(C)CN(C)CCc1ccccn1 (stereo not shown) | 1.62 |
| CCC(C)NC(=O)CCn1nc(-c2ccc(Cl)cc2)ccc1=O (stereo not shown) | -5.67 |
| COc1cc2c(cc1OC)C(C(=O)Nc1ccccn1)C1c3ccccc3CCN1C2=O (stereo not shown) | -5.22 |
| COc1ccc(-c2cc(C(=O)O)c3c(-c4ccc(C)cc4)[nH]nc3n2)cc1OC | 7.38 |
| COc1ccc(-n2c(SCC(=O)O)nc3sc4c(c3c2=O)CC(C)(C)OC4)cc1 | 0.385 |
| CC(O)CN(CC(C)O)CC1CC=CCC1 (stereo not shown) | -0.0494 |
| CC1CCN(S(=O)(=O)N2CCCC(C(=O)N3CCN(C)CC3)C2)CC1 (stereo not shown) | -0.546 |
| COc1ccc(-c2noc(CCC(=O)N3CCCC3)n2)cc1 | 1.49 |
| CC(C)Nc1nc(N)c(C(=O)C23CC4CC(CC(C4)C2)C3)s1 | -2.45 |
| C=C(C)CN(CC)C1CCN(CC)CC1 | -1.56 |
| CCCN1CCC(N2CCN(CC)CC2)CC1 | -3.27 |
| Cc1ccccc1-c1nc(CS(=O)CC(=O)NCCN2CCN(Cc3ccccc3)CC2)c(C)o1 (stereo not shown) | 3.79 |

| Structure (SMILES) | % Inhibition @ 10 uM [%] |
| --- | --- |
| CCCCN(C)CCNC(=O)c1[nH]c(C)c(C(C)=O)c1C | -2.29 |
| COC1CCCCC1NC(Cc1ccccc1)c1ccccc1 (stereo not shown) | 5 |
| CCCCN1C(=O)C(NC(=O)c2ccccc2OC)(C(F)(F)F)C2=C1CC(C)(C)CC2=O (stereo not shown) | -1.52 |
| O=C(O)c1nn(-c2ccccc2)c2c1CCc1occc1-2 | -2.91 |
| Fc1ccc(CCNCc2c[nH]c3ccccc23)cc1 | 1.88 |
| CC(C)c1ccc(C2c3c(-c4ccccc4O)n[nH]c3C(=O)N2CCO)cc1 (stereo not shown) | -3.12 |
| COc1ccc(C)cc1NC(=O)CN(C)S(=O)(=O)c1ccc(C)cc1 | 7.04 |
| CCc1ccc(N2C(=O)CC(NCCc3ccc(OC)cc3)C2=O)cc1 (stereo not shown) | -2.83 |
| COc1ccccc1CNc1cnn(C23CC4CC(CC(C4)C2)C3)c(=O)c1Cl | 0.738 |
| CC(C)OCCCNc1nc2c(S(=O)(=O)c3ccccc3)nnn2c2ccccc12 | 0.291 |
| CC(C)CNC(=O)C(C)c1ccc(CC(C)C)cc1 (stereo not shown) | -0.597 |
| c1ccc(SCCc2ccncc2)cc1 | 3.7 |
| CN(CCNC(=O)c1cc2c(s1)CS(=O)(=O)C2)C1CCCCC1 | 0.0695 |
| COc1ncc(Cc2ccc(C)cc2)cc1O | 5.53 |
| CC(C(=O)NC1CCCc2ccccc21)n1ncn2cccc2c1=O (stereo not shown) | 4.26 |
| O=C(CSc1nc(-c2ccccc2)c(-c2ccccc2)[nH]1)N1CCOCC1 | -4.43 |
| COc1ccc(OC)c(-n2c(CN3CCN(c4ccccc4)CC3)nc3ccccc3c2=O)c1 | -1.51 |
| Cc1ccc(S(=O)(=O)NCCc2cc3ccc(C)c(C)c3nc2O)cc1 | -4.16 |
| CC(NCCC(=O)O)c1ccccc1 (stereo not shown) | -4.35 |
| CN1CN=C2SC3(COC(c4cccc(Br)c4)OC3)C(=O)N2C1 (stereo not shown) | -0.357 |
| COc1cccc(C2C(C(C)=O)=C(O)C(=O)N2CCC(=O)O)c1 (stereo not shown) | 1.52 |
| CC(C)c1ccc(NC(=O)Cc2cccc3ccccc23)cc1 | -4.58 |
| C=CCN1C(=O)S/C(=C/c2ccc(-c3ccccc3)o2)C1=O | 11 |
| N#CCNC(=O)[C@H](CS(=O)(=O)Cc1ccccc1)NC(=O)c1ccoc1 | 3.1 |
| CCCOc1ccccc1C(=O)N(Cc1cccc(F)c1)C1CCS(=O)(=O)C1 (stereo not shown) | -1.35 |
